# Measured values from the supplement of paper PMC8728848.
# This is one part of the list.
# Legend:
# Experiment in all cases: glycan array binding signal (z-score within array); higher = stronger binding
# Conditions in all cases: glycan notation: IUPAC condensed, linker removed
# [1] = biological target: Fuc(a1-2)[GalNAc(a1-3)]Gal(b1-3)GlcNAc(b1-6)GalNAc
# Outline: (§1)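 Columns mapping to the same glycan were averaged after glycan names were converted to IUPAC-condensed notation. The data come from 3228 arrays in the Consortium for Functional Glycomics database, limited to those with an available protein sequence. Binding is reported as a within-array Z-score averaged across arrays of one protein sequence and across linkers.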
# [2] = biological target: Fuc(a1-2)[GalNAc(a1-3)]Gal(b1-4)Glc
# Outline: as §1
# [3] = biological target: Fuc(a1-2)[GalNAc(a1-3)]Gal(b1-4)GlcNAc
# Outline: as §1
# [4] = biological target: Fuc(a1-2)[GalNAc(a1-3)]Gal(b1-4)GlcNAc(b1-2)Man
# Outline: as §1
# [5] = biological target: Fuc(a1-2)[GalNAc(a1-3)]Gal(b1-4)GlcNAc(b1-2)Man(a1-3)[Fuc(a1-2)[GalNAc(a1-3)]Gal(b1-4)GlcNAc(b1-2)Man(a1-6)]Man(b1-4)GlcNAc(b1-4)GlcNAc
# Outline: as §1
# [6] = biological target: Fuc(a1-2)[GalNAc(a1-3)]Gal(b1-4)GlcNAc(b1-2)Man(a1-3)[Fuc(a1-2)[GalNAc(a1-3)]Gal(b1-4)GlcNAc(b1-2)Man(a1-6)]Man(b1-4)GlcNAc(b1-4)[Fuc(a1-6)]GlcNAc
# Outline: as §1
# [7] = biological target: Fuc(a1-2)[GalNAc(a1-3)]Gal(b1-4)GlcNAc(b1-3)Gal(b1-4)GlcNAc
# Outline: as §1
# [8] = biological target: Fuc(a1-2)[GalNAc(a1-3)]Gal(b1-4)GlcNAc(b1-3)Gal(b1-4)GlcNAc(b1-3)Gal(b1-4)GlcNAc
# Outline: as §1
# [9] = biological target: Fuc(a1-2)[GalNAc(a1-3)]Gal(b1-4)GlcNAc(b1-3)GalNAc
# Outline: as §1
# [10] = biological target: Fuc(a1-2)[GalNAc(a1-3)]Gal(b1-4)GlcNAc(b1-3)[Fuc(a1-2)[GalNAc(a1-3)]Gal(b1-4)GlcNAc(b1-6)]GalNAc
# Outline: as §1
# [11] = biological target: Fuc(a1-2)[GalNAc(a1-3)]Gal(b1-4)GlcNAc(b1-6)GalNAc
# Outline: as §1
# [12] = biological target: Fuc(a1-2)[GalNAc(a1-3)]Gal(b1-4)[Fuc(a1-3)]GlcNAc
# Outline: as §1
# [13] = biological target: Fuc(a1-2)[GalNAc(a1-3)]Gal(b1-4)[Fuc(a1-3)]GlcNAc(b1-3)GalNAc
# Outline: as §1
# [14] = biological target: Fuc(a1-2)[GalNAc(a1-4)]Gal(b1-4)GlcNAc
# Outline: as §1
# [15] = biological target: Fuc(a1-2)[GalNAc(b1-3)]Gal
# Outline: as §1
# Fuc(a1-3)GlcNAc = biological target: Fuc(a1-3)GlcNAc
# Outline: as §1
# [16] = biological target: Fuc(a1-3)[Gal(b1-4)]Glc6S
# Outline: as §1
# [17] = biological target: Fuc(a1-3)[Gal(b1-4)]GlcNAc
# Outline: as §1
# [18] = biological target: Fuc(a1-3)[Gal(b1-4)]GlcNAc(b1-2)Man
# Outline: as §1
# [19] = biological target: Fuc(a1-3)[Gal(b1-4)]GlcNAc(b1-2)Man(a1-3)[Fuc(a1-3)[Gal(b1-4)]GlcNAc(b1-2)Man(a1-6)]Man(b1-4)GlcNAc(b1-4)GlcNAc
# Outline: as §1
# [20] = biological target: Fuc(a1-3)[Gal(b1-4)]GlcNAc(b1-2)Man(a1-3)[Fuc(a1-3)[Gal(b1-4)]GlcNAc(b1-2)Man(a1-6)]Man(b1-4)GlcNAc(b1-4)[Fuc(a1-6)]GlcNAc
# Outline: as §1
# [21] = biological target: Fuc(a1-3)[Gal(b1-4)]GlcNAc(b1-3)Gal(b1-3)[Fuc(a1-4)]GlcNAc
# Outline: as §1
# [22] = biological target: Fuc(a1-3)[Gal(b1-4)]GlcNAc(b1-3)Gal(b1-4)[Fuc(a1-3)]GlcNAc
# Outline: as §1
# [23] = biological target: Fuc(a1-3)[Gal(b1-4)]GlcNAc(b1-3)Gal(b1-4)[Fuc(a1-3)]GlcNAc(b1-3)Gal(b1-4)[Fuc(a1-3)]GlcNAc
# Outline: as §1
# [24] = biological target: Fuc(a1-3)[Gal(b1-4)]GlcNAc(b1-3)GalNAc
# Outline: as §1
# [25] = biological target: Fuc(a1-3)[Gal(b1-4)]GlcNAc(b1-6)GalNAc
# Outline: as §1
# [26] = biological target: Fuc(a1-3)[Gal(b1-4)]GlcNAc(b1-6)[Gal(b1-3)GlcNAc(b1-3)]Gal(b1-4)Glc
# Outline: as §1
# [27] = biological target: Fuc(a1-3)[Gal(b1-4)]GlcNAc6S
# Outline: as §1
# [28] = biological target: Fuc(a1-3)[Gal3S(b1-4)]Glc
# Outline: as §1
# [29] = biological target: Fuc(a1-3)[Gal3S(b1-4)]GlcNAc
# Outline: as §1
# [30] = biological target: Fuc(a1-3)[Gal3S(b1-4)]GlcNAc6S
# Outline: as §1
# [31] = biological target: Fuc(a1-3)[GalNAc(b1-4)]GlcNAc
# Outline: as §1
# [32] = biological target: Fuc(a1-3)[GalNAc(b1-4)]GlcNAc6S
# Outline: as §1
# Fuc(a1-4)GlcNAc = biological target: Fuc(a1-4)GlcNAc
# Outline: as §1
# Fuc(b1-3)GlcNAc = biological target: Fuc(b1-3)GlcNAc
# Outline: as §1
# Gal(a1-2)Gal = biological target: Gal(a1-2)Gal
# Outline: as §1
# Gal(a1-3)Gal = biological target: Gal(a1-3)Gal
# Outline: as §1
# Gal(a1-3)Gal(b1-3)GlcNAc = biological target: Gal(a1-3)Gal(b1-3)GlcNAc
# Outline: as §1
# [33] = biological target: Gal(a1-3)Gal(b1-3)GlcNAc(b1-2)Man
# Outline: as §1
# [34] = biological target: Gal(a1-3)Gal(b1-3)GlcNAc(b1-2)Man(a1-3)[Gal(a1-3)Gal(b1-3)GlcNAc(b1-2)Man(a1-6)]Man(b1-4)GlcNAc(b1-4)GlcNAc
# Outline: as §1
# [35] = biological target: Gal(a1-3)Gal(b1-3)GlcNAc(b1-3)GalNAc
# Outline: as §1
# [36] = biological target: Gal(a1-3)Gal(b1-3)GlcNAc(b1-6)GalNAc
# Outline: as §1
# [37] = biological target: Gal(a1-3)Gal(b1-3)[Fuc(a1-4)]GlcNAc(b1-2)Man(a1-3)[Gal(a1-3)Gal(b1-3)[Fuc(a1-4)]GlcNAc(b1-2)Man(a1-6)]Man(b1-4)GlcNAc(b1-4)GlcNAc
# Outline: as §1
# Gal(a1-3)Gal(b1-4)Glc = biological target: Gal(a1-3)Gal(b1-4)Glc
# Outline: as §1
# Gal(a1-3)Gal(b1-4)GlcNAc = biological target: Gal(a1-3)Gal(b1-4)GlcNAc
# Outline: as §1
binder,measurement,setting,value
CBM40 CPF071 (Clostridium perfringens) (protein) MAHHHHHHVGTGSNDDDDKSPDPMLSSLGEYKDINLESSNASNITYDLEKYKNLDEGTIVVRFNSKDSKIQSLLGISNSKTKNGYFNFYVTNSRVGFELRNQKNEGNTQNGTENLVHMYKDVALNDGDNTVALKIEKNKGYKLFLNGKMIKEVKDTNTKFLNNIENLDSAFIGKTNRYGQSNEYNFKGNIGFMNIYNEPLGDDYLLSKTGETK,glycan array binding signal (z-score),[1],0.171
same,glycan array binding signal (z-score),[2],0.288
same,glycan array binding signal (z-score),[3],-0.116
same,glycan array binding signal (z-score),[4],-0.323
same,glycan array binding signal (z-score),[5],-0.216
same,glycan array binding signal (z-score),[6],-0.378
same,glycan array binding signal (z-score),[7],-0.103
same,glycan array binding signal (z-score),[8],-0.283
same,glycan array binding signal (z-score),[9],-0.63
same,glycan array binding signal (z-score),[10],-0.374
same,glycan array binding signal (z-score),[11],-0.391
same,glycan array binding signal (z-score),[12],0.073
same,glycan array binding signal (z-score),[13],0.134
same,glycan array binding signal (z-score),[14],-0.244
same,glycan array binding signal (z-score),[15],0.142
same,glycan array binding signal (z-score),Fuc(a1-3)GlcNAc,-0.562
same,glycan array binding signal (z-score),[16],-0.319
same,glycan array binding signal (z-score),[17],-0.067
same,glycan array binding signal (z-score),[18],-0.515
same,glycan array binding signal (z-score),[19],-0.445
same,glycan array binding signal (z-score),[20],-0.443
same,glycan array binding signal (z-score),[21],-0.321
same,glycan array binding signal (z-score),[22],-0.272
same,glycan array binding signal (z-score),[23],-0.15
same,glycan array binding signal (z-score),[24],-0.077
same,glycan array binding signal (z-score),[25],-0.084
same,glycan array binding signal (z-score),[26],0.177
same,glycan array binding signal (z-score),[27],-0.183
same,glycan array binding signal (z-score),[28],-0.323
same,glycan array binding signal (z-score),[29],0.024
same,glycan array binding signal (z-score),[30],0.19
same,glycan array binding signal (z-score),[31],0.303
same,glycan array binding signal (z-score),[32],-0.293
same,glycan array binding signal (z-score),Fuc(a1-4)GlcNAc,-0.272
same,glycan array binding signal (z-score),Fuc(b1-3)GlcNAc,0.378
same,glycan array binding signal (z-score),Gal(a1-2)Gal,-0.334
same,glycan array binding signal (z-score),Gal(a1-3)Gal,-0.072
same,glycan array binding signal (z-score),Gal(a1-3)Gal(b1-3)GlcNAc,-0.488
same,glycan array binding signal (z-score),[33],0.599
same,glycan array binding signal (z-score),[34],-0.034
same,glycan array binding signal (z-score),[35],-0.393
same,glycan array binding signal (z-score),[36],-0.284
same,glycan array binding signal (z-score),[37],-0.113
same,glycan array binding signal (z-score),Gal(a1-3)Gal(b1-4)Glc,-0.3
same,glycan array binding signal (z-score),Gal(a1-3)Gal(b1-4)GlcNAc,-0.332
